This is an account of results in article PMC4336329 (PLoS ONE, 2015).

Molecules are shown by their SMILES. Hit rate of the full screen: of about 310,000 compounds, about 2,200 (0.71%) showed an effect of 50% or more. The effect is printed as a negative number. The list shows a part of the results.

In the assay the target is human ether-à-go-go-related gene (hERG) potassium channel (human, UniProt Q12809). The assay is described as follows: primary screen, population patch clamp on CHO cells stably expressing hERG.
Sequence of human ether-à-go-go-related gene (hERG) potassium channel (Q12809 whole entry, looked up): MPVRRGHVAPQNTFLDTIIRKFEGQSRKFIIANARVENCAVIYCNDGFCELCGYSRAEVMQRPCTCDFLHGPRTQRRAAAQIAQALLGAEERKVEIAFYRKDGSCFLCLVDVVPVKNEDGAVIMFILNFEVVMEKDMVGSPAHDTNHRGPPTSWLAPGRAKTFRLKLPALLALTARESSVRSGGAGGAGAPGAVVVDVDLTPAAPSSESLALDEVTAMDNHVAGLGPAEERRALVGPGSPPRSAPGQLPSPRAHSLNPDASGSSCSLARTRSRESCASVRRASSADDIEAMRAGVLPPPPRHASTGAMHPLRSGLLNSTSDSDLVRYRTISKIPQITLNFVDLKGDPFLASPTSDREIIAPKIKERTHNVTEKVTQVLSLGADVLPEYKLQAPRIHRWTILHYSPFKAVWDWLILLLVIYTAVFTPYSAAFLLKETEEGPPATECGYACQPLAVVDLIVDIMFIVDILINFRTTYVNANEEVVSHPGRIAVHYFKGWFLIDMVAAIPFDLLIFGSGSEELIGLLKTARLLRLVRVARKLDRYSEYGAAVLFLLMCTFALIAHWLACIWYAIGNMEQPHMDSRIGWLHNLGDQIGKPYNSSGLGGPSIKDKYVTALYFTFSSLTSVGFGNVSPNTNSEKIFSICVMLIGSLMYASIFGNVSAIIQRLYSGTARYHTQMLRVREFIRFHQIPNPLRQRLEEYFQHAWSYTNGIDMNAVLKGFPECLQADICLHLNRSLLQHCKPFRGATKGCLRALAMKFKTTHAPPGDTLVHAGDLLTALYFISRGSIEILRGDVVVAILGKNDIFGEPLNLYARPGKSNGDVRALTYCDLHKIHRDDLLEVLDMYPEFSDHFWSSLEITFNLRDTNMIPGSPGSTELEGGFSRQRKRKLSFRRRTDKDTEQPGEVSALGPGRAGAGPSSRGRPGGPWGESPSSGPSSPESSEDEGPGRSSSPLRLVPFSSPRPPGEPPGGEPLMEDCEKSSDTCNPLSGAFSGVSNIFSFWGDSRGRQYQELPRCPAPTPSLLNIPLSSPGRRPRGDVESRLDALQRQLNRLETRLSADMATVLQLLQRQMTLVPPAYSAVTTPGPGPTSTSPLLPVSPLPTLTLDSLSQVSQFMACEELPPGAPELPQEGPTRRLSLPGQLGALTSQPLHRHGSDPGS
Consider `CN(CC(=O)Nc1ccccc1)CC(=O)Nc1ccccc1Cl`, for which the “hERG current change (%, negative = inhibition) at 1uM” value was 9.87%. With `O=C(NCC1COc2ccccc2O1)C1CCN(S(=O)(=O)c2ccc(Cl)cc2)CC1` (centres unmarked), the “hERG current change (%, negative = inhibition) at 1uM” value is on record as 7.92%. Under `O=C(COC(=O)COc1ccc(Cl)cc1)NC1CC1` stands 4.63%; under `O=C(CN(C1CCCCC1)S(=O)(=O)c1ccccc1)N1CCCC1`, -23%. Under `O=C1C(=O)N(CCOCCO)C(c2ccccn2)/C1=C(\O)c1ccccc1` (centres unmarked) stands 7.23%; under `CNS(=O)(=O)c1ccc(NC(=O)c2ccccn2)cc1`, 5.24%; under `O=S(=O)(Cc1ccccc1)NCCc1ccc(F)cc1`, 14.4%. Under `CCN(CC)c1ccc(/C=N/Nc2nc(C)cc(=O)[nH]2)c(O)c1` stands 7.91%; under `O=C(c1cc(-c2ccco2)nc2ccccc12)N(Cc1nnc(-c2ccc(Cl)cc2)o1)C1CC1`, 21.2%; under `COC(=O)Cc1c(C)nc2nc[nH]n2c1=O`, 10.5%. As to `O=C(NCCc1ccccc1)C(=O)NCCC1CCCCN1S(=O)(=O)c1cccs1` (centres unmarked), the “hERG current change (%, negative = inhibition) at 1uM” value is -4.19%. Under `CCN(CCCNC(=O)C1CCN(S(=O)(=O)c2cnc[nH]2)CC1)c1cccc(C)c1` stands 6.32%; under `CSc1nnc(C)c(/C=C/Nc2ccc(Cl)cc2)n1`, 14.9%. In the case of `C=CCn1c(SCC(=O)Nc2c(C)n(C)n(-c3ccccc3)c2=O)nc2scc(-c3ccccc3)c2c1=O`, the “hERG current change (%, negative = inhibition) at 1uM” value is 1.3%. For the compound `CCCCCC(=O)Nc1nc(C)c(-c2csc(Nc3ccccc3OC)n2)s1`, the “hERG current change (%, negative = inhibition) at 1uM” value was determined as 15.9%. Under `CC(C)CCN1C(Nc2ccccc2)=NC[C@@H]1CC(C)C` stands -3.68%. Under `CC(C)(C)OC(=O)N1CCC[C@H]1c1nnc(SCc2ccc(Cl)cc2Cl)o1` stands 8.33%; under `O=C(N/N=C/c1cccnc1)c1cccs1`, 4.13%; under `Cc1cc(C)c(OCC(=O)Nc2ccc(N3CCOCC3)cc2)c(Br)c1`, 11.3%. Next, `CC(C)c1csc(CN2CCCC(CNC(=O)c3cccc4ccccc34)C2)n1` (centres unmarked): 11.3%; `COc1ccc(C(=O)NC2CCCc3ccccc32)c(OC)c1OC` (centres unmarked): -4.64%; `COc1ccc(/C=C2/CC/C(=C\c3ccc(OC)c(OC)c3OC)C2=O)c(OC)c1OC`: 10.4%. `Cc1cc(Sc2nc(N(C)C)nc(N(C)C)n2)nc(Cl)n1`: the “hERG current change (%, negative = inhibition) at 1uM” value was found to be 5.05%.

For `Cc1ccc2nc(-c3ccncc3)cc(C(=O)NCCc3ccc(F)cc3)c2c1`, the “hERG current change (%, negative = inhibition) at 1uM” value came to 15.4%.

Turning to `NC(=O)COC(=O)c1ccccc1SCC(=O)NC1CCCCCC1`, the “hERG current change (%, negative = inhibition) at 1uM” value is given as 22.4%. Under `CCOc1ccccc1-n1c(SCC(=O)N2CCOCC2)nc2ccccc2c1=O` stands 9.52%; under `COc1cccc(C(=O)NNC(=O)C2CCCO2)c1` (centres unmarked), 9.37%. Under `Cc1ccsc1/C=N/n1c(C2CCCCC2)n[nH]c1=S` stands 9.33%; under `COc1ccc(CN2CCCC(C(=O)N(C)Cc3ccccc3)C2)cc1OC.O=C(O)C(=O)O` (centres unmarked), -46.2%.

With `COc1cccc(CC2(CO)CCCN(Cc3ccccc3Cl)C2)c1` (centres unmarked), the “hERG current change (%, negative = inhibition) at 1uM” value is on record as -12.5%. Under `CCN(C(=O)Oc1ccccc1)c1ccc(C(O)(C(=O)OC)C(F)(F)F)cc1` (centres unmarked) stands 11.8%; under `Cc1ccc(C(=O)N/C(=C/c2ccco2)C(=O)N2CCCCCC2)cc1`, 21.9%; under `NC(N)=Nc1nc2ccc([N+](=O)[O-])cc2[nH]1`, 13.6%. Under `O=C(COC(=O)c1ccc2ccccc2c1)Nc1ncc(C(F)(F)F)cc1Cl` stands 7.24%; under `Cc1cc(C)c(NC(=O)Cn2cnc3c(oc4ccccc43)c2=O)c(C)c1`, 11.7%; under `CCOc1ccc(N2C(=O)CC(Sc3nc(O)c(CC)c(=O)[nH]3)C2=O)cc1` (centres unmarked), 11.6%.

As to `Cc1ccccc1NC(=O)CC1c2ccccc2CC(C)(C)N1C` (centres unmarked), the “hERG current change (%, negative = inhibition) at 1uM” value came to 13%. Next, `Cc1ccc(S(=O)(=O)N(C)c2c(C)ccc(S(=O)(=O)NC(C)(C)C)c2C)cc1`: 12.2%; `Cc1ccccc1NC(=O)Oc1cccc(OC(=O)c2ccccc2)c1`: 10.9%. Under `Cc1ccc(CNC(=O)CNS(=O)(=O)c2ccc3nc(C)sc3c2)cc1` stands -8.77%; under `Nc1c(N=O)c(=O)[nH]c(=O)n1-c1ccccc1`, 11.4%.

For the compound `COc1cccc(CN2CCN(Cc3cc4ccccc4o3)CC2CCO)c1` (centres unmarked), the “hERG current change (%, negative = inhibition) at 1uM” value worked out at 6.2%.

`CCOC(=O)c1sc(-c2ccccc2)nc1C`: the “hERG current change (%, negative = inhibition) at 1uM” value is 9.24%.

`COc1ccc(C2(C(=O)Nc3ccccc3)CCOCC2)cc1`: the “hERG current change (%, negative = inhibition) at 1uM” value is recorded as 11.2%.

Turning to `CCOC(=O)c1nnn(-c2nonc2N)c1CN1CCc2ccccc2C1`, the “hERG current change (%, negative = inhibition) at 1uM” value is 3.43%.

Take `O=C(CNc1cc(S(=O)(=O)N2CCOCC2)ccc1N1CCCC1)NCc1ccco1`: the “hERG current change (%, negative = inhibition) at 1uM” value was -37.8%. Under `Cc1cnc(C(=O)OCC(=O)NC(C)CCc2ccccc2)cn1` (centres unmarked) stands 4.54%; under `Cc1cc(C)nc(NC2=NC3CCCCC3N2)n1` (centres unmarked), -2.33%; under `CCn1c2ccccc2c2cc(NC(=O)CNC)ccc21.O=C(O)C(=O)O`, 8.92%. Next, `O=C(CCCNS(=O)(=O)c1cccc2nsnc12)NCCN1CCN(c2ccccc2F)CC1`: 2.78%; `O=C(Nc1cccc(NC(=O)c2cccnc2)c1)c1cccnc1`: 9.64%; `CCOc1ccc(N/C=C/C(=O)c2ccccc2)c([N+](=O)[O-])c1`: 14.9%.

`Cc1ccccc1NC(=S)N=Nc1c(O)n(C)c2ccc(S(=O)(=O)N3CCOCC3)cc12`: the “hERG current change (%, negative = inhibition) at 1uM” value is -0.652%. In the case of `CC(C)CC(=O)N1CCN(Cc2ccc(Br)cc2)CC1`, the “hERG current change (%, negative = inhibition) at 1uM” value is given as 9.67%. Under `O=C(O)c1cc2nc(-c3cccs3)cc(C(F)(F)F)n2n1` stands 15.1%. Next, `Cn1c(=O)c(=O)n(C)c2cc(S(=O)(=O)CCC(=O)NCc3ccccc3)ccc21`: 19.2%; `O=C(COc1ccccc1)N1CCc2ccccc2C1`: 14%; `OCCC#Cc1ccc(CN2CCN(C3CCCCC3)C(CCO)C2)cc1` (centres unmarked): 12.4%. Next, `CC(C)Cn1cnc2sc3c(c2c1=N)CCCC3`: 5.01%; `CCOC(=O)Cc1csc(N(C)C)n1`: 0.0664%. With `Cc1cccc(NC(=O)CN(C)S(=O)(=O)c2ccc(-c3ccc(=O)[nH]n3)s2)c1C`, the “hERG current change (%, negative = inhibition) at 1uM” value is -5.3%. Next, `CCOC(=O)c1ccc(NC(=O)CSC2=NC(=O)C(CC)C(=O)N2)cc1` (centres unmarked): 16.8%; `Cc1ccc(NC(=O)C(C)OC(=O)c2ccc(NS(=O)(=O)c3ccc(F)c(F)c3)cc2)cc1` (centres unmarked): 14%.

For `CC(C)Cn1c(=O)c(CCC(=O)Nc2ccc(N3CCOCC3)cc2)nc2cc(Cl)ccc21`, the “hERG current change (%, negative = inhibition) at 1uM” value stood at 13.2%. As for `COCCNC(=O)c1onc(CSc2ccc(Cl)cc2)c1C(=O)O`, the “hERG current change (%, negative = inhibition) at 1uM” value came to 9.56%. Under `O=C(Cc1c(F)cccc1Cl)Nc1cccnc1` stands 14.7%; under `O=C(CSc1nnc(NC(=O)c2cccc(Cl)c2)s1)NCC1CCCO1` (centres unmarked), 16.1%.

Consider `O=C(Nc1ccccc1)N1CCc2ccccc21`, for which the “hERG current change (%, negative = inhibition) at 1uM” value is 6.6%. `CCOC(=O)c1csc(NC(=O)c2ccc(S(=O)(=O)N(CC)CC)cc2)n1`: the “hERG current change (%, negative = inhibition) at 1uM” value came to 8.68%. Under `O=C(C1=C(O)C(=O)N(CCN2CCOCC2)C1c1ccc([N+](=O)[O-])cc1)c1cc2ccccc2o1` (centres unmarked) stands 9.77%; under `Cc1ccc2[nH]c(=O)c(-c3noc(CC(C)C)n3)cc2c1`, 8.46%; under `COc1ccc(CCNC(=O)Cn2c(=O)n(CCCC(=O)NCc3ccco3)c(=O)c3sccc32)cc1OC`, 11.2%. Next, `CC(=O)Nc1ccc(S(=O)(=O)N(c2cccnc2)S(=O)(=O)c2ccc(NC(C)=O)cc2)cc1`: -8.93%; `Cc1cc(C)n(C(=O)c2ccc(NC(=O)C3CC3)cc2)n1`: 10.7%.

For `CC(=O)Nc1nonc1-n1nnc(C(=O)NCc2ccccc2)c1C`, the “hERG current change (%, negative = inhibition) at 1uM” value worked out at 1.87%. `Oc1ccc(/C=N/N2CCCCC2)c(O)c1`: the “hERG current change (%, negative = inhibition) at 1uM” value was found to be 13.4%. Next, `CCCC(=O)N(c1ccccc1)C1C=CS(=O)(=O)C1` (centres unmarked): -0.782%. Next, `O=C(/C=C/c1ccccc1)NC(NC(=S)Nc1cccc(Cl)c1)C(Cl)(Cl)Cl` (centres unmarked): 8.13%; `CC(=O)NNC(=O)CN1C(=O)/C(=C/c2ccccc2)SC1=S`: 12%. Under `Nc1c(C(=O)Nn2cnnc2)cc([N+](=O)[O-])cc1[N+](=O)[O-]` stands 5.97%. With `CCCN(CCC)C(=O)c1ccc2c(=O)n(Cc3ccco3)c(=S)[nH]c2c1`, the “hERG current change (%, negative = inhibition) at 1uM” value is 9.13%. Next, `NS(=O)(=O)c1ccc(NC(=S)NC(=O)c2cccs2)cc1`: 15.5%; `CCOC(=O)c1oc2ccc(Br)cc2c1COC(=O)C1=COCCO1`: 12.1%; `COC(=O)c1ccc(CSc2nc3ccc(Cl)cc3[nH]2)o1`: 6.36%. Under `Cc1ccc(-c2cc(=O)[nH][nH]2)c(C)c1` stands -4.61%; under `Cc1ccc(NC(=O)c2ccn(C)n2)c(Br)c1`, 7.39%.

Turning to `CCCCn1c(=O)[nH]c2c(oc3ccccc32)c1=O`, the “hERG current change (%, negative = inhibition) at 1uM” value is 7.62%. Under `COc1ccc(/C=N/NC(=O)c2ccc(COc3ccccc3Cl)o2)c(OC)c1C` stands 9.1%; under `O=C(CSc1nnc2n(C3CCCCC3)c(=O)c3ccccc3n12)OC1CCCCC1`, -0.251%.
